The record followed here is the supplement of paper PMC10338343.

± gives the standard deviation. In all, about 6,600 sequences were measured (“pre-steady-state target cleavage rate”: median about 0.07, highest 2% from about 0.72 on). The list shows a part of the results, in another mix than the full data.

The test system of this experiment is MIWI (PIWIL1) piRISC loaded with Kctd7 piRNA (30 nt). Put plainly: pre-steady-state target cleavage rate (min^-1); MIWI and MILI are mouse PIWI proteins and EfPiwi is from a freshwater sponge; tags in brackets are library labels; higher = faster piRNA-guided slicing of the target. The note with it: guide: Kctd7 piRNA 5'p-UGUUAAUCUCUCAGAGAAGGUGACAGUGAU; auxiliary factor: 500 nM mouse GTSF1. The procedure, abridged:
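The pre-steady-state cleavage rate came from a burst-and-steady-state fit to pooled data from three Cleave-'n-Seq trials, in which uncleaved targets were sequenced and normalised to depth and to weakly complementary targets. Each reaction held 0.1 nM transcribed, DNA-blocked target RNA library and 1 nM active affinity-purified piRISC carrying one synthetic guide, with or without 500 nM GTSF1 partner protein, in HEPES–potassium acetate buffer at 33 °C for 0–8 or 0–960 min. k3 was capped at 0.0001 min^-1.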
For UUCACAGUCACGUUCUCUGAGAGAUUAACA, the “pre-steady-state target cleavage rate” value was 0.685 ± 0.027.
The value for AUCACUGUCACGUUCUCUGAGAGAUAUUGA was 0.00377 ± 0.0033.
The value for UAGUGACAGACGCUUCUCUGAGAGAUUAACA was 0.0268 ± 0.006; that for UUCACUGUCACCUUCUCAGAGAGAUUAUCA was 0.186 ± 0.041.
In the case of UAGUGUGUCUCCUUCUCUGAGAGAUUAAGA it was 0.081 ± 0.02.
On to UAGUGAGUCACCUUUCUGAGAGAUUAACA, for which the “pre-steady-state target cleavage rate” value amounted to 0.35 ± 0.03.
As to UAGUGUGUCACCUUCUCAGAGAGAUUUACA, the “pre-steady-state target cleavage rate” value was 0.239 ± 0.032.
Consider UAGUGAGUCUGCUUCUCUGAGAGAUUAAGA, for which the “pre-steady-state target cleavage rate” value came to 0.0359 ± 0.0074.
The value for UAGACUGUCACCUUCCUCUGAGAGAUUAACA was 0.44 ± 0.028; that for UAGUGACACUCGUUCUCUGAGAGAUUAACA was 0.0919 ± 0.008.
The value for UAGUCUGAUCACCUUCUCUGAGAGAUUAACA was 0.652 ± 0.036; that for UAGUGACACACCUUCUCAGAGAGAUUAAGA was 0.0233 ± 0.0077.
Take UAGACACACACCUUCUCUGAGAGAUUAAGA: the “pre-steady-state target cleavage rate” value is 0.201 ± 0.037.
The value for UAGUGUGUUACCUUCUCUGAGAGAUUAACA was 0.327 ± 0.025.
In the case of UAGAGUGUCACCUUCUCUGAGAGAUUAUGA it was 0.142 ± 0.026; in that of UAGACUGUCACCUUGUCUGAGUGAUUAACA, 0.0247 ± 0.0041; in that of UAGUGACUGUGCUUCUCUGAGAGAUUAACA, 0.0581 ± 0.0074.
In the case of UAGUGAGUCACCUUCUCUGAGAGAUUAAGCA it was 0.323 ± 0.051.
Consider UAGUGAGUCACCUUCUCAGAGACAUUAACA, for which the “pre-steady-state target cleavage rate” value came out at 0.158 ± 0.02.
In the case of UACACUGUCACCUUGUCUGAGAGAAUAACA it was 0.103 ± 0.032.
In the case of UUCACUGUCACCUACUCUGAGAGAUAAACA it was 0.29 ± 0.036.
In the case of UAGUGAGUCACCUUCUCAGAGAGAUAUUGA, the “pre-steady-state target cleavage rate” value amounted to 0.00553 ± 0.0047.
The value for UAGUGACAGACCUUCACUGAGAGAUUAAGA was 0.00961 ± 0.0042.
The value for UAGUGACAGUGCUUCUCUGAGAGAUUAAUCA was 0.00423 ± 0.0026; that for UAGUGACACACCUUCUCUGAGAGAUAAAGA was 0.0117 ± 0.0046.
The value for UAGUGUGUCACCUCUCUCUGAGAGAUUAACA was 0.248 ± 0.026; that for UAGUCUGUCACCUUCUCUGAGAGAUUAUCA was 0.237 ± 0.031.
With UAGUGACAGUCCUUCUCUCAGAGAUUAACA, the “pre-steady-state target cleavage rate” value came to 0.00363 ± 0.0026.
In the case of UACACUGAGUCCUUCUCUGAGAGAUUAACA it was 0.379 ± 0.027; in that of UAGUGACUCACCUUCUCAGAGAGAUUAUGA, 0.00803 ± 0.0039; in that of UAGUGUGUCACCUUAUCUGAGAGAUUAACA, 0.423 ± 0.023.
In the case of UUCACUGUGACCAUCUCUGAGAGAUUAACA it was 0.493 ± 0.026; in that of UAGUGAGUCACCUUCUCUGACAGAUUAUGA, 0.0112 ± 0.0041; in that of UAGUGACACACGUUCUCUGAGUGAUUAACA, 0.00829 ± 0.0019.
In the case of UAGUGAGUCUCCUUCUCUGUGAGAUUAACA it was 0.0792 ± 0.011; in that of UAGUGACUCGACCUUCUCUGAGAGAUUAACA, 0.108 ± 0.013.
With UACAGUGUCAGCUUCUCUGAGAGAUUAACA, the “pre-steady-state target cleavage rate” value was found to be 0.622 ± 0.028.
With UACACUGUCACCUUCUCUGGAGAUUAACA, the “pre-steady-state target cleavage rate” value stood at 0.188 ± 0.016.
Regarding UACACUGCUCACCUUCUCUGAGAGAUUAACA, the “pre-steady-state target cleavage rate” value was 0.623 ± 0.035.
For UACACUGUGACCUUCUCUGAGAGAUUUUGA, the “pre-steady-state target cleavage rate” value was determined as 0.055 ± 0.013.
As for UACACUGUCACCUUCUCUGAGAGAUUCACA, the “pre-steady-state target cleavage rate” value is 0.509 ± 0.12.
In the case of UAGUGAGUCACCUUGACUGAGAGAUUAACA it was 0.0328 ± 0.006.
As for UAGUCUGUCUACCUUCUCUGAGAGAUUAACA, the “pre-steady-state target cleavage rate” value came to 0.166 ± 0.019.
AUCACUGUCACCUUGACUGAGAGAUUAUGA: the “pre-steady-state target cleavage rate” value was 0.151 ± 0.049.
In the case of UAGUGAGUCACCUUCUCUGAGUGAUAAACA it was 0.0237 ± 0.0075.
In the case of UUCACUGUCACGUUCUCUGAGAGAUUAUGA it was 0.0625 ± 0.016; in that of UUCACUGUGUGCUUCUCUGAGAGAUUAAGA, 0.00941 ± 0.0027.
For AACACUGUCACCUUCUCUCAGAGAUUAACA, the “pre-steady-state target cleavage rate” value came out at 0.15 ± 0.016.
In the case of UAGUGACACACCUUCUCUGAGAGAUAACA, the “pre-steady-state target cleavage rate” value is 0.0111 ± 0.0033.
In the case of AUCACUGUCUCCUUCACUGAGAGAUUAACA it was 0.426 ± 0.029.
The value for UACACUGUCACCUUCUCUGAGAGAUUAAGA was 0.192 ± 0.032; that for UAGACUGUCACCAACUCUGAGAGAUUAAGA was 0.0368 ± 0.01; that for UAGUGACAGACCUUCUCUGAGAGUUAAACA was 0.017 ± 0.0049.
The value for UACACUGUCACCUUCUCUGAGAGCUUAACA was 0.21 ± 0.024; that for AUCACUGUCACCUUCUCUGAGAGAUUACACA was 0.36 ± 0.051; that for AUCACUGUCACCUUCUCUGAUGAGAUUAACA was 0.0224 ± 0.0086.
With UUCACUGUCAGCUUCUCUCAGAGAUUAACA, the “pre-steady-state target cleavage rate” value is 0.0874 ± 0.0057.
The value for UAGUCUGUCACCUUCUCUGAGAGAUUAUGA was 0.0495 ± 0.011; that for UAGUGUGUCACCUUCUCGAGAGAUUAACA was 0.07 ± 0.011; that for UAGUGAGUCAGCUUCUCUGUGAGAUUAACA was 0.258 ± 0.013.
In the case of UUCACUGUCACCUUCUGUGAGAGAUAAACA, the “pre-steady-state target cleavage rate” value was found to be 0.165 ± 0.021.
The value for UUGACUGUCACCUUCUCUGAGUGAUUAACA was 0.0277 ± 0.0037; that for UAGUGACUCACCUUCUCUUAGAGAUUAACA was 0.161 ± 0.014; that for UUCACUGUGACCUUCACUGAGAGAUUAACA was 0.386 ± 0.031.
In the case of UAGUCUGUCUCCUUCUCUCAGAGAUUAACA it was 0.0845 ± 0.0069.
Consider AUCACUGUCACCUUGUCUGAGACAUUAACA, for which the “pre-steady-state target cleavage rate” value stood at 0.202 ± 0.027.
Take UACACUGUCACCUUCUCUGAGAGAGUUAACA: the “pre-steady-state target cleavage rate” value worked out at 0.462 ± 0.075.
The value for UAGUGACAGUGGUUCUCUGAGAGCAUUAACA was below 0.0001; that for UAGUGACUCAGCUUCUCUGAGAGAAUAACA was 0.0124 ± 0.0027; that for UAGUGUGUCACCUUCUCUGAGAGAAUUAACA was 0.35 ± 0.057.
In the case of UAGUGAGUCACCUUCUCUGACUCAUUAACA it was 0.00443 ± 0.0039; in that of UAGUGACUCAUCCUUCUCUGAGAGAUUAACA, 0.123 ± 0.011.
